“And” between values parts separate entries of the source, which are not always exact repeats. Identical values can stand only once. The list shows a part of the results. Further columns of the screen follow, without active or inactive calls. Most of these compounds were active or inconclusive in the main read-out, so they are no random draw.

This assay can be described thus: growth inhibition of WT strain, primary screen, mitochondrial fusion inhibitor project, WT and mutant strains, chemical genetic (AID 1362). Also: tested in S. cerevisiae. Conditions: mitochondrial fusion phenotypic screen, at 10 µM.
Consider `CC(C)(C)c1cc(C(c2cccnc2)N2CCN(CCO)CC2)cc(C(C)(C)C)c1O` (centres undefined), for which the inhibition is 46.2%.

As to `COc1ccc(C)cc1NC(=S)NC(C)c1ccc(OC)c(OC)c1` (centres undefined), the inhibition came out at 20.3%.

As to `CCCCc1c(C)nc2ccc(Br)cc2c1SCCC#N`, the inhibition was determined as 19.8%.

As to `CN(/N=C\c1ccc(O)c(O)c1)c1nc(-c2ccccc2)cc(-c2ccccc2)n1`, the inhibition is 57.3%.

`CCOC(=O)c1c(C)[nH]c(C)c1C(=O)COC(=O)c1cc2ccccc2cc1O`: the inhibition was -4.27%.

In the case of `c1csc(-c2nc3c4ccccc4c4ccccc4c3[nH]2)c1`, the inhibition worked out at 39.3%.

For the compound `Cc1ccc(-n2sc3ccccc3c2=O)cc1S(=O)(=O)N1CCCCC1`, the inhibition worked out at 90.5%.

For `CCc1ccc(OCC2c3cc(OC)c(OC)cc3CCN2C(=S)NC)cc1` (centres undefined), the inhibition stood at 20.6%.

Take `c1ccc(-c2cc(-c3nc4ccccc4[nH]3)c3ccccc3n2)cc1`: the inhibition was found to be 39.9%.

With `Cc1cc(NC(=S)N(Cc2ccc(Br)cc2)Cc2ccc(C(=O)O)cc2)ccc1Cl`, the inhibition worked out at 5.61%.

Regarding `Cc1sc(NC(=O)c2ccco2)c(C(c2ccc(F)cc2)N2CCN(C)CC2)c1C` (centres undefined), the inhibition is 1.52%.

Regarding `O=C1/C(=C/Nc2ccc3c(c2)OCO3)CCc2ccccc21`, the inhibition is 39.1%.

With `S=C(NCC1CCCCC1)Nc1ccc(Oc2ccccc2)cc1`, the inhibition was found to be 42.3%.

With `COc1ccccc1/C(C)=N/NC(=S)NCc1ccccc1`, the inhibition stood at 59.1%.

On to `C/C(CCc1ccc2c(c1)OCO2)=N\NC(=S)NC(C)C`, for which the inhibition stood at 26.7%.

As for `O=C(OCn1ncc(Br)c(Br)c1=O)c1ccc(F)cc1`, the inhibition amounted to 84.9%.

For the compound `C=CCc1cccc(CNc2nc3ccccc3n2C(C)C)c1O`, the inhibition amounted to 14.2%.

Consider `Cc1ccc(N(C)C(=O)c2ccc3c(Cl)c4c(nc3c2)CCC4)cc1C`, for which the inhibition was 27.3%.

`O=[N+]([O-])c1cccc(N/N=C/c2cccc(O)c2O)c1`: the inhibition came to 53.4%.

On to `CC(C)(C)[C@@H]1C=C(C(=O)N2CCN(Cc3ccccc3)CC2)O[C@H](OCc2ccc(CO)cc2)C1`, for which the inhibition turned out to be 11.3%.

As to `CCOC(=O)N1CCC(N2Cc3cccc(C(=O)Nc4ccc(CC)cc4)c3C2=O)CC1`, the inhibition was determined as 50%.

As to `Cc1cc(Br)c(OCc2ccc(C(=O)N/N=C3\CC4CC=CC34)cc2)c(Br)c1` (centres undefined), the inhibition amounted to 13.9%.

Regarding `COC(=O)CCC(=O)COc1ccc(OC)cc1C#N`, the inhibition was -11%.

Consider `Cc1ccc(Sc2ncnc3onc(C)c23)c(C)c1`, for which the inhibition is 38.5%.

For `O=C1NC(=S)S/C1=C\c1ccc(SCc2ccco2)o1`, the inhibition was 54.6%.

With `CCCS(=O)(=O)c1c(S(=O)(=O)CCC)c2cc(CC)ccn2c1C(=O)OC`, the inhibition worked out at 38.7%.

As for `O=C(Nc1nnc(C2CC2)s1)c1cc(-c2ccccc2)nn1-c1ccccc1`, the inhibition is 6.37%.

As to `O=C(NCCN1CCOCC1)c1ccc(=O)oc1`, the inhibition was found to be 15.4%.

`Nc1ccccc1Nc1cc(-c2ccccc2)nn1-c1cccc(Cl)c1`: the inhibition is 19.5%.

Take `Cc1ccccc1C(=O)Oc1ccc(Sc2ccc(O)cc2)cc1`: the inhibition turned out to be 33%.

For the compound `O=C(NNC(=S)NC(=O)C12CC3CC(CC(C3)C1)C2)c1ccncc1`, the inhibition was 57.1%.

As to `CC(=O)N(Cc1cc(=O)[nH]c2ccccc12)c1cccc(C)c1`, the inhibition was found to be 16.4%.

Consider `CN1CCN(CCCN2c3ccccc3Sc3ccc(Cl)cc32)CC1`, for which the inhibition is 56.1% and 93.8%.

Take `O=C1S/C(=C\c2ccc(O)c([N+](=O)[O-])c2)C(=O)N1Cc1cccc([N+](=O)[O-])c1`: the inhibition came out at 67.5%.

For `C/C(=N\Nc1nc2ccccc2s1)c1ccc(Br)s1`, the inhibition is 87.8%.

For `O=C(Cc1ccccc1)NNc1c2ccccc2nc2ccccc12`, the inhibition was determined as 33.2%.

On to `C=CCNC(=S)NNC(=O)COc1ccc(Cl)cc1Cl`, for which the inhibition came to 60.6%.

`Clc1ccc(CN2CCN(c3ncnc4scc(-c5cccs5)c34)CC2)cc1`: the inhibition is 55.3%.

Consider `CC1(C(=O)N(Cc2ccccc2)Cc2ccccc2)CC1(Br)Br` (centres undefined), for which the inhibition turned out to be 10.9%.

For the compound `Cc1nc(N2CCCCC2C)c2c(C)c(C(=O)Nc3ccccc3C(F)(F)F)sc2n1` (centres undefined), the inhibition worked out at 26.6%.

On to `CCCC(=O)N1CCN(c2ccc(NC(=O)c3ccc([N+](=O)[O-])o3)cc2Cl)CC1`, for which the inhibition worked out at 82.1%.

Regarding `CCc1cccc(CC)c1NC(=O)/C(C#N)=C/c1ccccc1C(F)(F)F`, the inhibition worked out at 26.1%.

For `O=C(CSCC(=O)OCn1nnc2ccccc2c1=O)Nc1ccc(Cl)cc1`, the inhibition was 6.67%.

For the compound `Cc1ccc(NC(=O)c2cc(-c3ccccc3)nn2-c2ccccc2)c(Br)c1`, the inhibition turned out to be 2.94%.

For the compound `Cc1cc(C)nc(NC(=O)/C=C/c2ccc(Cl)cc2Cl)c1`, the inhibition is 68.7%.

Consider `S=C(NCCSCc1c(Cl)cccc1Cl)Nc1ccccc1`, for which the inhibition was found to be 59%.

With `Cc1cc(=O)oc2cc(OCC3CC(c4ccc(Cl)cc4)=NO3)ccc12` (centres undefined), the inhibition was determined as 35.6%.

For the compound `S=C(Nc1ccc(Nc2ccccc2)cc1)NC1CCCCCC1`, the inhibition was found to be 62.1%.

For `O=C(N/N=C/c1cccc(O)c1)c1ccc(COc2ccccc2Br)cc1`, the inhibition turned out to be 20.7%.

`Cc1ccc(C)c(-n2[nH]c3c4c(ccc3c2=O)C(=O)c2ccccc2C4=O)c1`: the inhibition is 39.6%.

As to `Cc1cccc(C(=O)NC(=S)Nc2ccc(Cc3ccncc3)cc2)c1`, the inhibition was determined as 32.4%.

With `O=C(N1CCN(c2ccccn2)CC1)N1c2ccccc2Sc2ccccc21`, the inhibition worked out at 35.2%.

Regarding `CCOC(=O)c1c(C)n(-c2ccc(C)cc2)c2ccc(OCC(O)CNCC3CCCO3)cc12` (centres undefined), the inhibition worked out at 22.1%.

On to `CC(C)CCN(C(=S)Nc1cccc(F)c1)C(C)c1cccs1` (centres undefined), for which the inhibition was determined as 2.52%.

As for `Cc1sc(NC(=O)c2ccccc2)c(C(c2ccc(Cl)cc2)N2CCN(CCO)CC2)c1C` (centres undefined), the inhibition came out at 26.6%.

Regarding `CC(Oc1ccc2oc3ccccc3c2c1)C(=O)NC12CC3CC(CC(C3)C1)C2` (centres undefined), the inhibition stood at 7.23%.

Take `CN(C)CC/C=C1\c2ccccc2Sc2ccc(Cl)cc21`: the inhibition worked out at 84.3%.

As for `CC(/C=N/n1c(C2CCCCC2)n[nH]c1=S)=C\c1ccccc1`, the inhibition was 85.5%.

In the case of `CCC(C(=O)OC)n1c(-c2ccccc2)nc2ccccc2c1=O` (centres undefined), the inhibition was determined as 51.2%.

Consider `Cc1cc(C)c2sc(N(CCN(C)C)C(=O)c3c(F)cccc3F)nc2c1`, for which the inhibition is 37.8%.

Regarding `CCc1ccccc1N(C1=NCCCS1)S(=O)(=O)c1ccc(C(C)(C)C)cc1`, the inhibition came out at 8.47%.

For `C/C(=N\Nc1nc2ccccc2[nH]1)c1cc2ccccc2o1`, the inhibition was found to be 58.6%.

With `COc1ccc2[nH]c3c(NCCC4=CCCCC4)ncnc3c2c1`, the inhibition came to 40.4%.

Regarding `S=C(NCc1ccccc1)N1CCN(Cc2ccc3c(c2)OCO3)CC1`, the inhibition amounted to 39.6%.

Turning to `O=S(=O)(c1ccccc1)c1cnc(-c2ccccc2)nc1N1CCCCC1`, the inhibition is 12.4%.

`CC(C)COc1ccc(CSCCNC(=S)Nc2ccccc2)cc1`: the inhibition is 68.6%.

For `CC(=O)NCCn1c(SCc2ccc(C)cc2)nc2ccccc2c1=O`, the inhibition was 22.7%.

As to `CC(=O)c1ccc(-n2nnnc2SCC(=O)Nc2cccc(NC(=O)c3ccco3)c2)cc1`, the inhibition is -11.4%.

Regarding `CCSc1nnc(NC(=O)COc2ccc3ccccc3c2)s1`, the inhibition worked out at 7.97%.

Source of the values: PubChem BioAssay AID1362 (SRMLSC, 2008).
